According to patent US12297265B2, “Antibody and use thereof” (SICHUAN KELUN-BIOTECH BIOPHARMACEUTICAL CO., LTD., priority 2018, dated 2025):
Where a chain is given by its changes, count along the chain named. Marks after values point to notes of the source that are not given here.

B1: 19H11.6-hz00: chimeric antibody: 19H11.6 variable regions with human IgG1 and κ constant regions (antibody)
heavy: EVMLVESGGGLVKPGGSLKLSCAASGFSFSNSAMSWVRQTPEKRLEGVATISSGDSFTYYPDTVKGRFTISRDNAKNSLYLQMSRLRSEDTAVYYCARQGYGNALDYWGQGTSVTVSS[sequence of human IgG1 constant region omitted]
light: DIVMTQSPSSLTVTAGEKVTMTCKSSQSLLNSGNQKNYLTWYQQKPGQPPKLLIYWSSTRESGVPDRFTGSGSGTDFTLTISSVQAEDLAVYYCQNDYYYPLTFGAGTKLELKRTVAAPSVFIFPPSDEQLKSGTASVVCLLNNFYPREAKVQWKVDNALQSGNSQESVTEQDSKDSTYSLSSTLTLSKADYEKHKVYACEVTHQGLSSPVTKSFNRGEC
B2: 1E9.2-hz00: chimeric antibody: 1E9.2 variable regions with human IgG1 (SEQ ID NO: 42) and κ (SEQ ID NO: 43) constant regions (antibody)
heavy: B1 heavy with F57Y, T63S, R85S
light: B1 light with T22S
B3: 6B9.22-hz00: chimeric antibody: 6B9.22 variable regions with human IgG1 and κ constant regions (antibody)
heavy: QVQLQQSGAELVKPGASVKMSCKAFGYTFTSYPIEWMKQNHGKSLEWIGNFHPYNDDTKYNEKFKGKAKLTVEKSSSTVYLELSRLTSDDSAVYYCARTYYGNSFAYWGQGTLVTVSS[sequence of human IgG1 constant region omitted]
light: B1 light with T22S, S57A, T59S, E61D, D66H, V91F, Y99F, L102F
B4: 9C8.1-hz00: chimeric antibody: 9C8.1 variable regions with human IgG1 and κ constant regions (antibody)
heavy: QVQLQQSGAELVRPGSSVKISCKASGYAFSNYWMNWVKQRPGQGLEWIGQIYPGDGDTNYNGKFKGKATLTTDKSSSTAYMQLSSLTSEDSAVYFCARLYYGNSFAYWGQGTLVTVSS[sequence of human IgG1 constant region omitted]
light: B1 light with M21V, T22S, S57A, E87A, V91I, Y99F, L102F, A106G, L112I
B5: 16A9.11-hz00: chimeric antibody: 16A9.11 variable regions with human IgG1 and κ constant regions (antibody)
heavy: B1 heavy with F57Y, T63S, N74T, R85S, A97T, L105M
light: B1 light with T22S

What was measured:
human Claudin18.2 [1] = biological target: T1, human Claudin18.2 (Homo sapiens, UniProt P56856); assay: FACS affinity of chimeric antibodies to Ba/F3-Claudin18.2 cells; type: binding; design: expressed in transfected cells; host or cells: Ba/F3 (BaF/3, DSMZ ACC300), hygromycin-selected monoclonal line
Description: The amino acid sequence of the light chain variable region of 1E9.2, 2C6.9, 6B9.22, 9C8.1, 16A9.11, 19G10.14 or 19H11.6 was linked to the amino acid sequence of the light chain constant region κ (SEQ ID NO: 43) respectively; the amino acid sequence of the heavy chain variable region was linked to the amino acid sequence of IgG1 heavy chain constant region (SEQ ID NO: 42) respectively, to construct the chimeric antibody. Codon optimized cDNA was synthesized and cloned to pcDNA3.4 (synthesized by Nanjing Genscript Biotech Corporation). The pcDNA3.4 plasmids coding the light chain and heavy chain of each antibody were co-transfected to Expi293F cells (purchased from Thermo Fisher). The antibodies were purified from culture supernatant by protein A (MabSelect SuRe, GE). And the purified chimeric antibodies were named 1E9.2-hz00, 2C6.9-hz00, 6B9.22-hz00, 9C8.1-hz00, 16A9.11-hz00, 19G10.14-hz00 and 19H11.6-hz00.
The affinity of the anti-Claudin18.2 chimeric antibodies to Ba/F3-Claudin18.2 cells were determined. Specifically, Ba/F3-Claudin18.2 cells (60000 in 10 ul buffer) were incubated with serially diluted anti-human Claudin18.2 chimeric antibodies or the control antibody IMAB362 on ice for 30 min, followed by washing with FACS buffer (PBS+2% FBS) twice and incubating with fluorescent goat-anti-human secondary antibody (Thermo Fisher Sci., Cat: A-21445) on ice for another 30 min. The cells were then analyzed by FACS.

Ba/F3-Claudin 18.2 cells = assay: ADCC activity on Ba/F3-Claudin 18.2 cells (NK-92MI_mCD16, CytoTox-Glo); type: cell-based; settings: Ba/F3-Claudin 18.2 target cells, NK-92MI_mCD16 effector cells, 6h
Description: In order to evaluate the ADCC activity, ten thousand Ba/F3-Claudin18.2 cells were cultured in 40 μl NK-92 media. Antibodies were serially diluted in 10 μl PBS. Fifty thousand NK-92MI_mCD16 cells in 50 μl NK-92 media were added and the reactions were incubated at 37° C. for 6h. 33.3 μl CytoTox-Glo (Promega, G9290) was added to each reaction […].

human Claudin18.2 [2] = biological target: T1, human Claudin18.2; assay: Affinity of chimeric and humanized antibodies to Ba/F3-Claudin 18.2 cells (IntelliCyt); type: binding; design: expressed in transfected cells; host or cells: Ba/F3 (BaF/3, DSMZ ACC300), hygromycin-selected monoclonal line
Description: In order to evaluate the anti-Claudin18.2 humanized antibodies, codon optimized cDNAs of the heavy chains and the light chains of the candidate humanized antibodies from Example 6 were synthesized and ligated into pcDNA3.4 (by Nanjing Genscript Biotech Corporation). Expi293F cells (purchased from Thermo Incorporation) were co-transfected with pcDNA3.4 coding the heavy chain and light chain of each antibody. The antibodies were purified from the supernatant using protein A (MabSelect SuRe, GE). The affinity of the humanized antibodies to Claudin18.2 was determined using Ba/F3-Claudin18.2 cells which over-expressed human Claudin18.2. Ba/F3-Claudin18.2 cells (60000 in 10 ul buffer) were incubated with purified humanized antibodies on ice for 30 min, followed by washing with buffer (PBS+2% FBS) twice and addition of Alexa647-labeled goat-anti-human IgG Fc antibody (1:500 dilution). The cells were incubated on ice for another 30 min and analyzed by IntelliCyt.

| Molecule | Max MFI (human Claudin18.2 [1]) | ADCC EC50 (Ba/F3-Claudin 18.2 cells) | Max killing rate (Ba/F3-Claudin 18.2 cells) | Max MFI (human Claudin18.2 [2]) |
| --- | --- | --- | --- | --- |
| B1 | 12.97 ×10^6 | – | – | – |
| B2 | 11.8 ×10^6 | 0.049* μg/mL | 59.83* % | 11.17 ×10^6 |
| B3 | 16.70 ×10^6 | – | – | – |
| B4 | 14.41 ×10^6 | – | – | – |
| B5 | 12.40 ×10^6 | – | – | – |
